Assay results reported in PMC4207660, “Identification and Characterization of Hundreds of Potent and Selective Inhibitors of Trypanosoma brucei Growth from a Kinase-Targeted Library Screening Campaign” (PLoS Neglected Tropical Diseases, 2014).

Legend:
[1] = test system: T. brucei brucei parasites (Lister 427 strain); test: Dose response growth inhibition assay (resazurin, 72 h); type: cell-based; conditions: Trypanosoma brucei, read-out: Tbb pEC50 (converted)
Method: Greiner sterile black clear bottom 384-well assay plates were pre-dispensing with 200 nL of compound in each well, from master plates at 1 mM (100% DMSO) containing selection from the GSK compound collection. Controls of 0% response (control 1, 200 nL of 100%DMSO) and 100% response (control 2, 200 nL of 1 mM pentamidine) were included in each assay plate in columns 6 and 18, respectively. Plates containing 200 nL of 100% DMSO were included randomly in the assay, to assess quality through all process. […] After this period, 10 µL of 200 µM resazurin solution in prewarmed HMI-9 were added to each well, and plates were allowed to incubate 2 hours more prior fluorescence reading in a Wallac EnVision Multilabel Plate Reader (Perkin-Elmer). Raw fluorescent data from the Envision plate reader were uploaded into GSK HTS database (ActivityBase). Activity of each well was normalized as a percentage of inhibition per-plate basis using the following equation: [drawing 1]
For dose-response experiments, serial compound dilutions of selected hits from the primary campaign were plotted against compound concentration. Dose response master plates were prepared by 3-fold dilutions (starting with 10 mM DMSO stock solutions), providing 11 concentrations. From these master plates, 200 nL per well was stamped in final assay plates, including the same controls describe in the primary single shot assay. Compounds were dispensed as serial dilution curve format, with 11 points at 3-fold dilution and 40 µM as starting top concentration (n = 2). Growth inhibition assay was performed as described in previous assay.
A 4-parameter equation describing a sigmoidal dose-response curve was then fitted with an adjustable baseline using ActivityBase XE Runner software. Fitting of dose-response curves and EC50 determination were normalized as percentage of inhibition based on controls. The curve-fit model was based on a 4-parameter equation: [drawing 2]
Trypanosome cell culture. […]

[2] = CLND kinetic solubility assay; type: physicochemical; conditions: pH 7.4, aqueous buffer, kinetic from dmso stock, Measured, read-out: Aq Sol
Method: 5 µL of 10 mM DMSO stock solution was diluted to 100 µL with pH 7.4 phosphate buffered saline, equilibrated for 1 hour at room temperature, filtered through Millipore MultiscreenHTS-PCF filter plates (MSSL BPC). The filtrate was quantified by suitably calibrated flow injection Chemi-Luminescent Nitrogen Detection.

[3] = GSK in-house artificial membrane permeability assay; type: in vitro ADME; conditions: PAMPA, pH 7.4, Measured
Method: 250 µL and 100 µL 50 mM phosphate buffer pH 7.4 with 0.5% encapsin was applied to the donor and receiver compartments, respectively. 2.5 µL of a 10 mM stock solution of compound in DMSO was added to the donor compartment. The assay was incubated at RT for 3 hours. […] The permeability (logPapp) measures how fast molecules pass through the lipid membrane is expressed in nm/s.

[4] = target: T1, Human Serum Albumin (HSA) (Homo sapiens, UniProt P02768); test: Protein binding assay (HPLC stationary phase), HSA; type: in vitro ADME; conditions: Measured
T1 construct: purchased Chiral Technologies, France
Method: Chemically bonded Human Serum Albumin (HSA) and Alpha-1-acidglycoprotein HPLC stationary phases (Chiral Technologies, France) were used for measuring compounds' binding to plasma proteins, applying linear gradient elution up to 30% iso-propanol. The run time was 6 min, including the re-equilibration of the stationary phases with the 50 mM pH7.4 ammonium acetate buffer. The obtained gradient retention times were standardised using a calibration set of mixtures as described in the references. The average standard error of the assay depends on the binding strength and kinetics of the compounds.

[5] = target: Cytochrome P450 (CYP450) (Homo sapiens, UniProt P08684); test: Cytochrome P450 inhibition profile; type: in vitro ADME; conditions: Measured
Method: The P450 inhibition profile of the inhibitors was determined as previously described.

[6] = test system: HepG2 cells; test: Cytotoxicity assay (Cell Titer Glo, 48 h); conditions: HepG2 cytotoxicity
Method: This assay was used as selectivity assay, and selected hits from the primary were test in dose response concentration against HepG2 in order to identify the level of host cell cytotoxicity. Dose response starting at 10 mM and with 3-fold dilutions for 11 points, were made in 1,536-well master plates. 50 nL per well from them were stamped in final assay plates. The human biological samples were sourced ethically and their research use was in accord with the terms of informed consent.
Cell density was adjusted to 60,000 cells/mL as working concentration in prewarmed Eagle's MEM medium. Seeding density was be checked to ensure that new monolayers are not more than ∼ 50% confluent at the time of seeding (typically 3,000 cells per well), before completing preparation of plates. […] Viability was determined by Cell Titer Glo Kit (Promega) according to manufacturer's instructions: briefly, reconstituted Cell Titer Buffer was equilibrated to room temperature prior its use and 5 µL per well were dispensed with a Multidrop Combi Reagent Dispenser. Contents were mixed on a plate orbital shaker and incubated for 10 min at room temperature, to allow the signal to stabilize before luminescence reading on ViewLux Plate Reader (Perkin-Elmer).
Raw Luminescence data from the ViewLux reader were uploaded into GSK HTS database (ActivityBase). […]

[7] = ChromlogD assay
Method: The Chromatographic Hydrophobicity Index (CHI)[22] values were measured using reversed phase HPLC column (Luna C18 (2), Phenomenex, UK) with a fast acetonitrile gradient at starting mobile phase of pH = 7.4. CHI values are derived directly from the gradient retention times by using a calibration line obtained for standard compounds. The CHI value approximates to the volume % organic concentration when the compound elutes. […] The average error of the assay is ±3 CHI unit or ±0.25 ChromlogD.

[8] = CYP3A4, VG substrate, read-out: CYP3A4VG pXC50 (converted)
[9] = CYP3A4, VR substrate, read-out: CYP3A4VR pXC50 (converted)

SMILES | EC50 ([1]; T. b. brucei growth inhibition) [nM] | solubility kinetic at 1 h ([2]; phosphate buffered saline) [µM] | Papp at 3 h, 100 µM [3] [×10⁻⁶ cm/s] | HSA % binding [4] [%] | IC50 [5, 8] [nM] | IC50 [5, 9] [nM] | EC50 [1] [nM] | HepG2 pTC50 [6] | PFI [7] | solubility kinetic at 1 h [2] [µM]
NCC(Cc1ccccc1)C(=O)Nc1ncc(-c2c[nH]c3ncccc23)s1 (centres unmarked) [NEU-0001239] | 126 | 113 (≈ 42.7 µg/mL) | 4.2 | 96.6 | 5010 | 3980 |  |  |  | 
CN(C)Cc1ccc(-c2cc3c(-c4cnn(C)c4)ccnc3[nH]2)cc1 [NEU-0001200] |  |  |  | 95.7 | 2510 | > 50100 | 20 | 4.3 | 6.88 | 
O=C1Nc2ccc3ncsc3c2/C1=C/Nc1ccc2c(c1)CS(=O)(=O)C2 [NEU-0001179] | 126 |  |  |  | 2510 |  |  | <4 | 5.64 | 16 (≈ 6.14 µg/mL)

Values after ≈ are worked out from the molar mass of the structure shown. Like-named read-outs stand apart in the source and are kept apart here.
